# Laboratory results from the supplement of paper PMC9135407.
# Values joined by “and” are separate entries in the source; they are usually repeats but may differ in a detail not shown here. Equal entries are not always repeated. Structures can show the parent of a compound that is named as a salt. About 620 (11%) of roughly 5,800 compounds showed activity.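 How the source made its calls: active = score above a cut-off or among the top three wells of a plate; in these data no inactive exceeds 0.85.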 The list shows a part of the results, in another mix than the full data.
# Test system: primary human hepatic stellate cells (donor 1)
# Assay: scaled lipid accumulation score (0 = DMSO-like, 1 = nortriptyline-like); higher = stronger HSC inactivation (lipid re-accumulation), active = hit call of the paper
# Conditions: 48 h
# [1] = library stock concentration: 10 mM
# [2] = library stock concentration: 3.33 mM
# [3] = library stock concentration: 1 mM
# [4] = library stock concentration: 400 uM
# [5] = library stock concentration: 2 mM
# [6] = library stock concentration: 80 uM
compound,measurement,setting,value
Cc1cccc(C#Cc2ccccc2)n1 [MPEP hydrochloride],scaled lipid accumulation score,[1],inactive: 0.053
Cc1cccc(C#Cc2ccccc2)n1,scaled lipid accumulation score,[2],inactive: ≤ 0
same,scaled lipid accumulation score,[1],inactive: 0.052
Cc1cccc(C#Cc2ccccc2)n1 [6-Methyl-2-(phenylethynyl)pyridine hydrochloride],scaled lipid accumulation score,[1],inactive: ≤ -0.034
CN(C1CCc2c(c3ccccc3n2CC(=O)O)C1)S(=O)(=O)c1ccc(F)cc1 (stereo unspecified),scaled lipid accumulation score,[3],inactive: 0.083
C=C[C@@]1(C)C[C@@H](OC(=O)CS[C@@H]2C[C@H]3CC[C@@H](C2)N3C)[C@@]2(C)[C@@H]3C(=O)CC[C@@]3(CC[C@@H]2C)[C@@H](C)[C@@H]1O [Retapamulin],scaled lipid accumulation score,[1],active: 0.947
C[C@H](O)C(=O)Nc1c(I)c(C(=O)NC(CO)CO)c(I)c(C(=O)NC(CO)CO)c1I [Iopamidol],scaled lipid accumulation score,,inactive: ≤ 0
COC(=O)C1=C(C)NC(C)=C(C(=O)OCCSc2ccccc2)C1C (stereo unspecified),scaled lipid accumulation score,[1],inactive: 0.111
same,scaled lipid accumulation score,library stock concentration: 13.8 mM,inactive: 0.203
CCCCC/C=C\C\C=C/C=C/C=C/[C@@H](SC[C@H](N)C(=O)O)[C@@H](O)CCCC(=O)O [Leukotriene E4],scaled lipid accumulation score,library stock concentration: 100 uM,inactive: 0.015
O=c1cc[nH]c(=S)[nH]1 [2-Thiouracil],scaled lipid accumulation score,[2],inactive: 0.006
same,scaled lipid accumulation score,[1],inactive: ≤ 0
O=c1cc[nH]c(=S)[nH]1 [2-thiouracil],scaled lipid accumulation score,[1],inactive: ≤ -0.027
CC(C)CC(=O)N[C@H](C(=O)N[C@H](C(=O)N[C@@H](CC(C)C)[C@@H](O)CC(=O)N[C@@H](C)C(=O)N[C@@H](CC(C)C)[C@@H](O)CC(=O)O)C(C)C)C(C)C [Pepstatin A],scaled lipid accumulation score,,inactive: 0.033
CC(C)CC(=O)N[C@H](C(=O)N[C@H](C(=O)N[C@@H](CC(C)C)[C@@H](O)CC(=O)N[C@@H](C)C(=O)N[C@@H](CC(C)C)[C@@H](O)CC(=O)O)C(C)C)C(C)C [Pepstatin a],scaled lipid accumulation score,library stock concentration: 2.9 mM,inactive: 0.001
CC(C)CC(=O)N[C@H](C(=O)N[C@H](C(=O)N[C@@H](CC(C)C)[C@@H](O)CC(=O)N[C@@H](C)C(=O)N[C@@H](CC(C)C)[C@@H](O)CC(=O)O)C(C)C)C(C)C [Pepstatin],scaled lipid accumulation score,library stock concentration: 7.3 mM,inactive: 0.005
CC(C)(C)c1ccc(-c2nc3ccccc3[nH]2)cc1,scaled lipid accumulation score,[2],inactive: ≤ -0.009
same,scaled lipid accumulation score,[1],inactive: ≤ 0
O=C(/C=C/c1ccc(CN(CCO)CCc2c[nH]c3ccccc23)cc1)NO [LAQ824 (Dacinostat)],scaled lipid accumulation score,[2],inactive: 0.742
same,scaled lipid accumulation score,[1],inactive: 0.578
Cc1nc(N)ncc1-c1nc(N2CCOCC2)c2sc(C(C)(C)O)cc2n1,scaled lipid accumulation score,[4],inactive: 0.092
same,scaled lipid accumulation score,[5],inactive: ≤ -0.005
same,scaled lipid accumulation score,[1],inactive: ≤ -0.005
Cc1nc(-c2cn3c(n2)-c2ccc(-c4cnn(C(C)(C)C(N)=O)c4)cc2OCC3)n(C(C)C)n1 [Taselisib],scaled lipid accumulation score,[6],inactive: ≤ -0.001
same,scaled lipid accumulation score,[4],inactive: ≤ -0.001
same,scaled lipid accumulation score,[5],inactive: 0.003
same,scaled lipid accumulation score,[1],inactive: ≤ -0.001
CCCCC[C@H](O)/C=C/[C@H]1CC[C@H](O)[C@@H]1C/C=C\CCCC(=O)O [11-deoxy Prostaglandin F2.alpha.],scaled lipid accumulation score,[3],inactive: ≤ 0
Nc1nc(NCCc2ccc(O)cc2)nc2nc(-c3ccco3)nn12,scaled lipid accumulation score,[1],inactive: ≤ -0.006
C=CCN1CCc2c(cc(O)c(O)c2Br)[C@@H](c2ccccc2)C1 [R(+)-6-Bromo-APB hydrobromide],scaled lipid accumulation score,[1],inactive: 0.262
C[C@@H]1C[C@H]2[C@@H]3C[C@H](F)C4=CC(=O)C(Cl)=C[C@]4(C)[C@@]3(F)[C@@H](O)C[C@]2(C)[C@@]1(O)C(=O)CO,scaled lipid accumulation score,[1],inactive: ≤ 0
"CCCC/C=C/C=C/C=C\CCCCCCCC(=O)O [9(Z),11(E),13(E)-Octadecatrienoic Acid]",scaled lipid accumulation score,[3],inactive: ≤ 0
CCCCCCCCCCCCCCCC(=O)OC[C@@H](O)COP(=O)(O)O [1-Palmitoyl Lysophosphatidic Acid (sodium salt)],scaled lipid accumulation score,[3],inactive: 0.001
CCn1ccnc1CC1COc2ccccc2O1 (stereo unspecified) [Imiloxan hydrochloride],scaled lipid accumulation score,[1],inactive: 0.162 and inactive: ≤ 0
COc1ccc(S(=O)(=O)N(C(C)=O)c2ccccc2/C=C/c2cc[n+]([O-])cc2)cc1,scaled lipid accumulation score,[6],inactive: ≤ -0.016
same,scaled lipid accumulation score,[4],inactive: ≤ -0.016
same,scaled lipid accumulation score,[5],inactive: ≤ -0.016
same,scaled lipid accumulation score,[2],inactive: ≤ 0
same,scaled lipid accumulation score,[1],inactive: ≤ 0 and inactive: 0.15
Cc1c(F)cc(C(=O)NC2CC2)cc1-c1ccc(C(=O)NCC(C)(C)C)cn1 [Losmapimod],scaled lipid accumulation score,[6],inactive: ≤ 0
same,scaled lipid accumulation score,[4],inactive: 0.016
same,scaled lipid accumulation score,[5],inactive: ≤ 0
same,scaled lipid accumulation score,[1],inactive: ≤ 0
Cc1c(F)cc(C(=O)NC2CC2)cc1-c1ccc(C(=O)NCC(C)(C)C)cn1,scaled lipid accumulation score,[2],inactive: ≤ -0.009
same,scaled lipid accumulation score,[1],inactive: 0.107
C[C@H](C(=O)O)c1ccc(-c2ccccc2)c(F)c1 [(S)-Flurbiprofen],scaled lipid accumulation score,[3],inactive: 0.003
CC[C@H]1OC(=O)[C@H](C)[C@@H](O[C@H]2C[C@@](C)(OC)[C@@H](O)[C@H](C)O2)[C@H](C)[C@@H](O[C@@H]2O[C@H](C)C[C@H](N(C)C)[C@H]2O)[C@](C)(O)C[C@@H](C)[C@@H]2N[C@@H](COCCOC)O[C@H]([C@H]2C)[C@]1(C)O [Dirithromycin],scaled lipid accumulation score,,inactive: ≤ 0
same,scaled lipid accumulation score,[2],inactive: ≤ 0
same,scaled lipid accumulation score,[1],inactive: ≤ -0.001 and inactive: 0.267
O=C1CC2(CCCC2)CC(=O)N1CCCCN1CCN(c2ncccn2)CC1 [Buspirone HCl],scaled lipid accumulation score,[2],inactive: ≤ 0
same,scaled lipid accumulation score,library stock concentration: 5.2 mM,inactive: 0.036
same,scaled lipid accumulation score,[1],inactive: 0.058
O=C1CC2(CCCC2)CC(=O)N1CCCCN1CCN(c2ncccn2)CC1 [Buspar],scaled lipid accumulation score,[1],inactive: 0.124
O=C1CC2(CCCC2)CC(=O)N1CCCCN1CCN(c2ncccn2)CC1 [Buspirone hydrochloride],scaled lipid accumulation score,library stock concentration: 4.7 mM,inactive: ≤ 0
same,scaled lipid accumulation score,[1],inactive: 0.089 and inactive: 0.028
CC(C)c1cc(-c2ccc(F)c3ccccc23)nc(N)n1,scaled lipid accumulation score,[2],inactive: 0.006
same,scaled lipid accumulation score,[1],inactive: ≤ 0
O=C(NOC[C@H](O)CO)c1ccc(F)c(F)c1Nc1ccc(I)cc1F,scaled lipid accumulation score,[6],inactive: ≤ -0.009
same,scaled lipid accumulation score,[4],inactive: 0.009 and inactive: ≤ -0.005
same,scaled lipid accumulation score,[5],inactive: ≤ -0.009 and inactive: ≤ -0.005
same,scaled lipid accumulation score,[2],inactive: ≤ 0
same,scaled lipid accumulation score,[1],inactive: ≤ 0 and inactive: 0.067 and inactive: 0.059
Cc1cc(C)c(/C=C2\C(=O)Nc3ccccc32)[nH]1,scaled lipid accumulation score,[3],inactive: ≤ 0
same,scaled lipid accumulation score,[1],inactive: ≤ 0 and inactive: 0.011
Cc1cc(C)c(/C=C2\C(=O)Nc3ccccc32)[nH]1 [VEGF Receptor 2 Kinase Inhibitor III],scaled lipid accumulation score,[2],inactive: ≤ 0
Cc1cc(C)c(/C=C2\C(=O)Nc3ccccc32)[nH]1 [Semaxanib (SU5416)],scaled lipid accumulation score,[2],inactive: ≤ 0
same,scaled lipid accumulation score,[1],inactive: 0.145
CCn1nc(C(=O)O)c(=O)c2cc3c(cc21)OCO3 [Cinoxacin],scaled lipid accumulation score,,inactive: 0.021
same,scaled lipid accumulation score,library stock concentration: 7.6 mM,inactive: ≤ -0.001
same,scaled lipid accumulation score,[1],inactive: ≤ 0 and inactive: 0.088
Cc1cc(/C=C/c2ccc3cc(N(C)C)ccc3[n+]2C)c(C)n1-c1ccccc1 [Pyrvinium pamoate],scaled lipid accumulation score,,inactive: ≤ 0
same,scaled lipid accumulation score,library stock concentration: 2.6 mM,inactive: 0.485
same,scaled lipid accumulation score,[1],inactive: 0.763
CCCCN1CCC(CCC(=O)c2cc(Cl)c(N)cc2OC)CC1,scaled lipid accumulation score,[1],inactive: 0.511
O=c1c(-c2ccc(O)cc2)coc2c([C@@H]3O[C@H](CO)[C@@H](O)[C@H](O)[C@H]3O)c(O)ccc12 [Puerarin],scaled lipid accumulation score,[2],inactive: ≤ 0
same,scaled lipid accumulation score,[1],inactive: ≤ 0
COCCOC(=O)C1=C(C)NC(C)=C(C(=O)OC/C=C/c2ccccc2)C1c1cccc([N+](=O)[O-])c1 (stereo unspecified) [Cilnidipine],scaled lipid accumulation score,[2],inactive: ≤ 0
same,scaled lipid accumulation score,[1],inactive: ≤ 0 and inactive: ≤ -0.07 and inactive: ≤ -0.001
O=C1c2ccccc2C(Cc2ccnc(F)c2)(Cc2ccnc(F)c2)c2ccccc21,scaled lipid accumulation score,[1],inactive: ≤ -0.001
CCCCNc1ccc(C(=O)OCCOCCOCCOCCOCCOCCOCCOCCOCCOC)cc1 [Benzonatate],scaled lipid accumulation score,,inactive: 0.073
Cc1cc([C@@H](C)Nc2ccccc2C(=O)O)c2nc(N3CCOCC3)cc(=O)n2c1,scaled lipid accumulation score,[6],inactive: ≤ 0
same,scaled lipid accumulation score,[4],inactive: ≤ 0
same,scaled lipid accumulation score,[5],inactive: 0.003
same,scaled lipid accumulation score,[2],inactive: 0.02
same,scaled lipid accumulation score,[1],inactive: 0.074 and inactive: ≤ 0
O=C(O)/C=C/c1ccc(Cn2ccnc2)cc1,scaled lipid accumulation score,[1],inactive: ≤ 0
O=C(O)/C=C/c1ccc(Cn2ccnc2)cc1 [Ozagrel],scaled lipid accumulation score,[3],inactive: ≤ 0
same,scaled lipid accumulation score,[2],inactive: ≤ 0
same,scaled lipid accumulation score,library stock concentration: 8.8 mM,inactive: ≤ -0.006
same,scaled lipid accumulation score,[1],inactive: ≤ 0
O=C(O)/C=C/c1ccc(Cn2ccnc2)cc1 [Ozagrel HCl],scaled lipid accumulation score,[2],inactive: ≤ 0
same,scaled lipid accumulation score,[1],inactive: ≤ 0
O=C(O)/C=C/c1ccc(Cn2ccnc2)cc1 [Ozagrel hydrochloride],scaled lipid accumulation score,,inactive: ≤ 0
same,scaled lipid accumulation score,[1],inactive: 0.011
COc1cc2nccc(Oc3ccc(NC(=O)C4(C(=O)Nc5ccc(F)cc5)CC4)cc3)c2cc1OC [Cabozantinib malate (XL184)],scaled lipid accumulation score,[2],inactive: 0.354
same,scaled lipid accumulation score,[1],inactive: 0.677
COc1cc2nccc(Oc3ccc(NC(=O)C4(C(=O)Nc5ccc(F)cc5)CC4)cc3)c2cc1OC,scaled lipid accumulation score,[6],inactive: 0.011
same,scaled lipid accumulation score,[4],inactive: ≤ -0.016
same,scaled lipid accumulation score,[5],inactive: 0.189
same,scaled lipid accumulation score,[2],inactive: 0.757
same,scaled lipid accumulation score,[1],inactive: 0.459 and inactive: 0.491
CNC(=O)c1cc(COc2nnc(Nc3ccc(Cl)cc3)c3ccoc23)ccn1 [Telatinib],scaled lipid accumulation score,[2],inactive: 0.276
same,scaled lipid accumulation score,[1],inactive: 0.248
Oc1ccc(OCc2ccccc2)cc1 [Monobenzone],scaled lipid accumulation score,,inactive: ≤ 0
same,scaled lipid accumulation score,[2],inactive: ≤ 0
same,scaled lipid accumulation score,[1],inactive: ≤ 0
